The values below come from the supplement of paper PMC11417369.

± gives the standard deviation of the averaged measurements. This is one part of the list.

For the test, the system named is PfAP2-LT AP2 domain (GST-tagged). The experiment in a line: gcPBM binding intensity (ln(normalized median fluorescence intensity)); higher = stronger DNA binding. In a few lines:
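An Agilent 4 × 180k array of primer-extended double-stranded 36-bp intergenic genomic probes, with negative controls, was incubated for 1 h with GST-tagged P. falciparum DNA-binding domains expressed in E. coli. Alexa488 anti-GST antibody detected bound protein, scanned at 488 nm. Binding intensity is the highest Masliner-normalised natural-log median intensity across replicate spots of either probe orientation.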
For the sequence “ATAATAAGGTTAAGCACACATATTACATATATAACT [CACACA_site3356]”, the “gcPBM binding intensity (ln)” value was determined as 9.08 ± 0.51.

“CCAGTGTGCACCTTGCGTACATATTAAATTAATTAA [XGTACX_site3729]”: the “gcPBM binding intensity (ln)” value came to 8.73 ± 0.57.

With “AAAAAAGAAATAAGGATACACACTATTGATAAAAGT [CACACA_site272]”, the “gcPBM binding intensity (ln)” value is 9.15 ± 0.4. Then TTTTTTAAATTTAAAGTGCATTATTATATATTTGTA, with 8.53 ± 0.38.

Take CAAAAAAAAAAACGGGTGCTAAATTTTATTTTTTAT: the “gcPBM binding intensity (ln)” value is 8.48 ± 0.49. With “AAAAAAAAAATATATATATATATATATATATATATA [GTGCAC_negctrl_site467]” the figure was 10.1 ± 0.2; with “ATAAAGCACACCGACACACACATATATATATATATA [CACACA_site1047]”, 10.54 ± 0.099; with “TATCATGGTTCGGATTGTACATATATGAATTTTTTT [XGTACX_site7478]”, 8.8 ± 0.37.

For the sequence “TTCTTTTAAAAATATATTTTAAGAAAATTTAATTTA [GTGCAC_negctrl_site237]”, the “gcPBM binding intensity (ln)” value was 7.79 ± 0.47.

With “GGATAAGAAAAGAAGTGTACATATATATATATATAT [XGTACX_site8290]”, the “gcPBM binding intensity (ln)” value came out at 9.865 ± 0.035. For “TTTATTTTTTGAAACACACACAAAAAAAATGATACA [CACACA_site1881]”, the “gcPBM binding intensity (ln)” value is 8.8 ± 0.35. With “AAAAAAAAAAAAAAGAGTACTTTTTTCACATTCATC [XGTACX_site8795]”, the “gcPBM binding intensity (ln)” value came to 8.6 ± 0.39.

Turning to “AATATATGTTAAAATGGTACACAATTATTATATATT [XGTACX_site6407]”, the “gcPBM binding intensity (ln)” value was 8.75 ± 0.44. In the case of “TAAAATGAATAAAATTGTACTTAATAATATTTTAAA [XGTACX_site5532]”, the “gcPBM binding intensity (ln)” value is 8.23 ± 0.57.

Consider “AAAAAAAAAAAAATTACACACATACCTATAAGAATA [CACACA_site7097]”, for which the “gcPBM binding intensity (ln)” value was determined as 8.9 ± 0.38. Then “TTTTCTTTTTTCTTTTTAACTCTTACATAATAGGTG [CACACA_negctrl_site642]”, with 8.46 ± 0.5; and “TAATATATAAATATATGTACATAATTAATAGGATAT [XGTACX_site237]”, with 8.85 ± 0.4. On to “GGATATATAAGATACACACACAAATTAAATATAAAA [CACACA_site7333]”, for which the “gcPBM binding intensity (ln)” value is 9.48 ± 0.54. With “TATTCCTAATTTAAAAGTACATATATATATATATAT [XGTACX_site3008]” the figure was 9.29 ± 0.42; with CTTATAATATTACGGGTGCTATAAATACATTATATT, 8.83 ± 0.3; with “TAAATCAAAAACAACAAGTCATATTAAAGATGGTAT [CACACA_negctrl_site1321]”, 8.89 ± 0.45. With “TTGTTTCAAAATTAAACACACACAAAAAAAAAAAAA [CACACA_site8856]” the figure was 8.86 ± 0.52. In the case of “AAGGAAAACAGTAGGTGTACCAAACGTCCTAGGAAC [XGTACX_site3659]”, the “gcPBM binding intensity (ln)” value was determined as 9.18 ± 0.45.

As to “TATATTTATATCATCACACATTTTTTTTTTCTTTTT [CACACA_site6150]”, the “gcPBM binding intensity (ln)” value stood at 8.64 ± 0.52. With “ATATATAATAATTGTAGTACAATTAATAAATAAAAT [XGTACX_site3840]” the figure was 8.85 ± 0.52.

“TATATATATATAATTTGTACACACAAATATGCATAT [XGTACX_site7297]”: the “gcPBM binding intensity (ln)” value worked out at 9.19 ± 0.33. For the sequence “TCCTCATTTTATCATACACACTTGTTTATATGTGTG [CACACA_site6548]”, the “gcPBM binding intensity (ln)” value amounted to 9.23 ± 0.38. With “ATACGATTGCAGTCAAAAAGGAAAATATAAAAAAAG [XGTACX_negctrl_site124]” the figure was 8.7 ± 0.57. With “TTATCATTTTAAATCACACACATATATAAATATGTA [CACACA_site7359]” the figure was 8.77 ± 0.28. “AATATTTATAAATTTACACACACACCCGTGAACATA [CACACA_site1910]”: the “gcPBM binding intensity (ln)” value was 9.6 ± 0.36. With “TGGGGTATTAAAAAAACACACAAAAAAAATATAAAG [CACACA_site1915]”, the “gcPBM binding intensity (ln)” value was 8.74 ± 0.64. Take “GATAATAATAAGTGTACACATATATTTAGAAGAGTA [CACACA_site4245]”: the “gcPBM binding intensity (ln)” value is 9.04 ± 0.54. For “AAAATGTATATTGGCGCATGTAAACAAATACTATAC [TGCATGCA_site385]”, the “gcPBM binding intensity (ln)” value is 9.27 ± 0.42. For “TCAAAATGTGACATAAAAGAAAAAAAAAAAAAAAAA [CACACA_negctrl_site1092]”, the “gcPBM binding intensity (ln)” value came to 8.49 ± 0.45. Then “ATATATATGTATGTATATATATATATATATGTTTGA [CACACA_negctrl_site107]”, with 9.24 ± 0.2. Then “TTTTTTTTTCTGTATACACACAAAATTTATTTTTTA [CACACA_site2873]”, with 8.84 ± 0.5.

“TTAATAACGTAATGTAAATGTTTCATACCCTTTTTT [CACACA_negctrl_site988]”: the “gcPBM binding intensity (ln)” value came out at 8.61 ± 0.42. Regarding “AAAGAAGGGGGGGGAAAAAAAAATAAAAGAGGAAAA [XGTACX_negctrl_site92]”, the “gcPBM binding intensity (ln)” value turned out to be 8.82 ± 0.41.

Take “ATAAAATAAAAACATGCACACTTTATTTTTTTTAAG [CACACA_site5545]”: the “gcPBM binding intensity (ln)” value was 8.63 ± 0.42. Then “AAATTTAGTAAAAAATGTACGTAAAATGTAAAATAT [XGTACX_site1314]”, with 9.01 ± 0.44; and “ATACTAACATTTTTTTGTACATATAACTATAAAATA [XGTACX_site1033]”, with 8.5 ± 0.44; and “AAGGTAAACGGACACACACACATACAAAAAAAAAAA [CACACA_site5961]”, with 9.77 ± 0.67.

Turning to “TGATATTATAGATATACACACATGTATGTATTTATA [CACACA_site6758]”, the “gcPBM binding intensity (ln)” value was determined as 8.97 ± 0.35. With “AGACCTATGATATATACACACATATAAATAAATATA [CACACA_site6725]” the figure was 9.09 ± 0.4; with “TTATTAAATATAAATATGTATCTTTTATGTTATATT [CACACA_negctrl_site306]”, 8.59 ± 0.43.
